# Source: PubChem BioAssay AID602179 (National Center for Advancing Translational Sciences (NCATS), 2012)
# About 360 (0.092%) of roughly 390,000 compounds were called active. Inconclusive results, whose numbers are uncertain, are shown with a selection of clear calls. The call rests on the fitted dose curve; in most records, active means well fitted inhibition curve with a large enough effect; inconclusive means small, poorly fitted or top-dose-only effect; inactive means no such curve, though single readings can be large or run the other way. Potencies of inconclusive entries are doubtful fits and often do not repeat.
# Molecular target: Isocitrate dehydrogenase [NADP] cytoplasmic (Homo sapiens) (UniProt O75874)
# Test: qHTS for Inhibitors of mutant isocitrate dehydrogenase 1 (IDH1): qHTS; further: nearly all actives have a fitted effect of over 65% in size
# Conditions: IDH1-R132H enzyme, NADPH consumption, diaphorase/resazurin fluorescence; series mostly up to 76.6 µM; activity change, negative = inhibition: at the top concentration
# Method in brief: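 IDH1-R132H (0.5 ug/mL) preincubated 30 min with compound, then NADPH (0.016 mM) and alpha-KG (2 mM) added; 80 min at RT, pH 7.5. Remaining NADPH coupled via diaphorase/resazurin to fluorescence (540/590 nm); concentration-response curves normalized to no-enzyme control.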
# On the % scale 0 is the no-effect control and ±100 the full control effect; potency means the concentration at half of the fitted maximal effect; tags describe the fitted curve by direction and shape.
SMILES,Potency,"activity change, negative = inhibition"
COc1ccc(-c2sc3ccc(OC)cc3c2-c2ccc(O)cc2)cc1,"inconclusive: 50.1 µM [inhibitor, single point]",–
COc1ccc(-c2oc3cc(OC(C)=O)cc(OC(C)=O)c3c(=O)c2OC)cc1,"inconclusive: 46.5 µM [inhibitor, partial curve]",–
Cc1ccc(Cl)cc1-c1ccc(C=Nc2ccc(N3CCOCC3)cc2)o1,–,inactive: -1.89%
CNc1cc(F)nc(F)n1,–,inactive: 20.9%
CC[C@]12c3[nH]c4cc(-c5ccco5)ccc4c3CCN1C(=O)[C@@H](CC(=O)NC/C=C(\C)CCC=C(C)C)C[C@@H]2C(=O)N1CCN(C(=O)C2CC2)CC1,active: 35.5 µM,–
CN1CCN(NC(=O)c2cc(-c3ccc(Cl)s3)nc3ccccc23)CC1,"inconclusive: 16.5 µM [inhibitor, single point]",–
Cc1ccccc1NC(=O)Cc1nc(COC(=O)c2ccc(S(C)(=O)=O)c([N+](=O)[O-])c2)cs1,–,inactive: -16.2%
O=C(NC(CSCc1ccccc1)C(=O)N/N=C/c1ccc(O)cc1O)c1ccc([N+](=O)[O-])cc1 (stereo not drawn),"inconclusive: 44.7 µM [inhibitor, single point]",–
CC(C)(C)OC(=O)N1CCC(NC(=O)c2[nH]cnc2C(=O)Nc2ccc(Br)cc2F)CC1,"inconclusive: 44.7 µM [inhibitor, single point]",–
O=C(NC1CCCCC1)C(c1cccs1)N(C(=O)c1ccco1)c1ccc2c(c1)OCCO2 (stereo not drawn),"inconclusive: 11.7 µM [inhibitor, full curve]",–
Cc1ccc(S(=O)(=O)/N=c2\ccc(Cl)cn2C(F)F)cc1,–,inactive: 3.11%
CCn1cc(C(=O)NCc2ccco2)c(=O)c2cc(S(=O)(=O)N3CC(C)CC(C)C3)ccc21 (stereo not drawn),active: 5.21 µM,–
COCCCn1c(SCc2cccc(Cl)c2)nc2c(sc3ccccc32)c1=O,–,inactive: -6.97%
COc1cc(/C=C2\C(C)=C(C#N)c3nc(N)c(C#N)c(C)c32)ccc1OCC(=O)O,"inconclusive: 58.5 µM [inhibitor, single point]",–
COC(=O)c1ccc(N2C(=O)Cc3cc(OC)c(OC)cc3C2c2ccc(F)cc2)cc1 (stereo not drawn),"inconclusive: 50.1 µM [inhibitor, single point]",–
COc1cccc(-c2nc(CS(=O)CC(=O)NC(C)CCc3ccccc3)c(C)o2)c1 (stereo not drawn),–,inactive: 2.87%
COc1ccc(C2c3c(-c4ccccc4)n[nH]c3C(=O)N2c2ccc(C(=O)O)cc2)cc1 (stereo not drawn),active: 52.1 µM,–
CC(C)CS(=O)(=O)C1=NSC2=NC(=O)/C(=C\c3ccc(OC(=O)c4ccco4)cc3)C(=N)N21,"inconclusive: 46.5 µM [inhibitor, partial curve]",–
CSC1=NC(=O)/C(=C\c2cccc3ccccc23)S1,active: 58.5 µM,–
Cc1ccc(C(=O)C2=C(O)C(=O)N(Cc3cccnc3)C2c2cccc(Oc3ccccc3)c2)o1 (stereo not drawn),"inconclusive: 50.1 µM [inhibitor, single point]",–
c1ccc(CN2CCC(N=C3NN=C(c4ccc5c(c4)OCCO5)CS3)CC2)cc1,"inconclusive: 44.7 µM [inhibitor, single point]",–

SMILES,Potency,"activity change, negative = inhibition"
CC(=O)O[C@@H](C[C@@H](C)C1=C2C[C@H](O)C3[C@@]4(C)CCC(=O)C(C)(C)C4CC[C@]3(C)[C@@]2(C)CC1)[C@H]1OC1(C)C (stereo partly drawn),"inconclusive: 50.1 µM [inhibitor, single point]",–
Cc1ccc2cc3c(N)c4c(C)ccc(C)c4nc3nc2c1,"inconclusive: 58.5 µM [inhibitor, single point]",–
Cc1cccc2c(N=Nc3ccc(S(=O)(=O)Nc4ccc(Cl)cc4)cc3[N+](=O)[O-])c(O)[nH]c12,"inconclusive: 26.1 µM [inhibitor, partial curve, poor fit]",–
CCn1cc(C(=O)NC2CCCCC2)c(=O)c2cc(S(=O)(=O)N(C)C)ccc21,"inconclusive: 31.6 µM [inhibitor, partial curve, poor fit]",–
CN1CC=C2C(C#N)=C(N)C(C#N)(C#N)C(c3ccsc3)C2C1 (stereo not drawn),"inconclusive: 36.9 µM [inhibitor, partial curve]",–
COc1cccc(OC)c1C(=O)Nc1cc(C)nn1-c1nc2ccccc2[nH]1,"inconclusive: 44.7 µM [inhibitor, partial curve, poor fit]",–
CCOc1ccc(C2c3c(-c4cc(C)ccc4O)n[nH]c3C(=O)N2Cc2cccnc2)cc1OCC (stereo not drawn),"inconclusive: 50.1 µM [inhibitor, single point]",–
CC(=O)N1CC=C2C(C#N)=C(N)C(C#N)(C#N)[C@H](c3ccoc3)[C@H]2C1,"inconclusive: 41.4 µM [inhibitor, partial curve, poor fit]",–
c1ccc(C2=Nn3c(nnc3-c3cc(-c4ccccc4)n[nH]3)SC2)cc1,"inconclusive: 36.9 µM [inhibitor, partial curve]",–
O=C(Nc1ccc(S(=O)(=O)Nc2nccs2)cc1)c1cc(-c2ccncc2)nc2ccccc12,"inconclusive: 58.5 µM [inhibitor, single point]",–
COc1cccc(OC)c1C(=O)Oc1ccc2c(c1)O/C(=C\c1ccncc1)C2=O,"inconclusive: 23.3 µM [inhibitor, full curve]",–
COc1ccc(C2C(C#N)=C(N)N(c3sc4c(c3C#N)CCCC4)C3=C2C(=O)CC(C)(C)C3)cc1OC (stereo not drawn),"inconclusive: 14.7 µM [inhibitor, single point]",–
CC(C)c1ccc(CN2CCN(C(=O)CCl)CC2)cc1,"inconclusive: 58.5 µM [inhibitor, partial curve, poor fit]",–
CC(C)CCN(C(=O)Cc1ccc(Cl)c(Cl)c1)c1c(N)n(Cc2ccccc2)c(=O)[nH]c1=O,–,inactive: 1.81%
N#C/C(=C\c1ccccc1OCc1ccc(C(=O)O)cc1)C(=O)Nc1ccc(O)cc1,"inconclusive: 39.8 µM [inhibitor, partial curve]",–
Cc1cc(C)cc(C(=O)N2CC(=O)Nc3ccc(C)cc3C2c2ccccc2)c1 (stereo not drawn),"inconclusive: 44.7 µM [inhibitor, single point]",–
O=S(=O)(Nc1cccc(-c2cn3c(n2)SCC3)c1)c1ccccc1F,"inconclusive: 50.1 µM [inhibitor, single point]",–
COc1ccc(CN(Cc2nc3ccccc3c(=O)[nH]2)C(=O)NC2CCCCC2)cc1,"inconclusive: 29.3 µM [inhibitor, full curve]",–
COc1ccccc1-c1noc(CSc2nnc(Cc3ccccc3)n2-c2ccc(C)c(C)c2)n1,"inconclusive: 39.8 µM [inhibitor, partial curve]",–
O=S(=O)(c1ccc(Br)cc1)c1nnn2c1nc(NC1CCCCCC1)c1sccc12,"inconclusive: 63.1 µM [inhibitor, single point]",–
CCN(CC)c1ccc2c(-c3ccc(S(=O)(=O)O)cc3S(=O)(=O)[O-])c3ccc(=[N+](CC)CC)cc-3oc2c1,"inconclusive: 2.24 µM [inhibitor, full curve, poor fit]",–

SMILES,Potency,"activity change, negative = inhibition"
COc1cc2cc(-c3ccc(O)cc3O)nc(C)c2cc1OC,"inconclusive: 20.7 µM [inhibitor, partial curve, poor fit]",–
Cc1cc(-c2ccccc2)n(-c2cc(N/N=C/c3ccccc3O)ncn2)n1,–,inactive: -5.09%
Cc1cc(N/N=C/c2ccc(O)cc2O)nc(-c2ccccc2O)n1,active: 39.8 µM,–
COc1ccc2oc3cc(C)[n+]([O-])c(-c4ccc(C)cc4)c3c2c1,–,inactive: 0.137%
O=c1c2ccccc2nc(/C=C/c2cccc3ccccc23)n1-c1ccc(F)cc1F,"inconclusive: 63.1 µM [inhibitor, single point]",–
CCc1ccc(-c2cc(C)no2)cc1S(=O)(=O)NCCCN1CCN(c2ccccc2)CC1,–,inactive: 4.42%
Cc1cccc(OCC(=O)Nc2ccc(N3CCN(C(=O)c4ccco4)CC3)cc2)c1,–,inactive: 6.87%
Cc1ccccc1-n1c(SCC(=O)Nc2ccccc2Cl)nc2n[nH]c(C)c2c1=N,"inconclusive: 58.5 µM [inhibitor, single point]",–
CCN(C(=O)c1ccc2c(SCC(=O)O)c3c(nc2c1)CCC3)c1cc(Cl)ccc1OC,"inconclusive: 46.5 µM [inhibitor, partial curve, poor fit]",–
COc1cccc(C(=O)NCCc2csc3nc(-c4ccccc4F)nn23)c1OC,–,inactive: -13.1%
Nc1nnc(SCC(=O)Nc2sc3c(c2C(=O)c2ccccc2)CCCC3)s1,"inconclusive: 44.7 µM [inhibitor, single point]",–
Cc1cccc(-c2cc(C(=O)NCc3ccccn3)c3ccccc3n2)c1,–,inactive: 1.27%
COc1ccccc1CNC(=O)C1(c2cccs2)CCOCC1,"inconclusive: 63.1 µM [inhibitor, single point]",–
CCc1ccc2[nH]cc(S(=O)(=O)c3ccc(C(C)C)cc3)c(=O)c2c1,"inconclusive: 50.1 µM [inhibitor, single point]",–
COC(=O)c1ccc2c(c1)C(C)(C)C(/C=C/c1ccc(OC)c(OC)c1OC)=[N+]2C,"inconclusive: 58.5 µM [inhibitor, single point]",–
CC(C)Cn1c(SCc2nc3ccccc3c(=O)[nH]2)nc2ccccc2c1=O,–,inactive: -3.49%
COc1ccc(Br)cc1/C=N/Nc1ccc(S(=O)(=O)Nc2ccccc2C(=O)O)cc1[N+](=O)[O-],"inconclusive: 52.1 µM [inhibitor, single point]",–
CC(=O)Nc1ccc(C2=NNC(=NCC3CCCO3)SC2)cc1 (stereo not drawn),"inconclusive: 23.3 µM [inhibitor, partial curve]",–
CC1CCN(Cc2nc(Cl)c3c4c(sc3n2)CCC4)CC1,–,inactive: -3.04%
CCOc1cnn(-c2cc(Oc3ccc(C)cc3)ncn2)c(=O)c1Cl,–,inactive: 13.3%
Cc1cc(C)n(-c2nc(N(c3ccccc3)c3ccccc3)nc(-n3nc(C)cc3C)n2)n1,"inconclusive: 14.7 µM [inhibitor, full curve]",–
